Hit rate of the full screen: of about 48,000 compounds, about 550 (1.1%) were called active. Roughly 4% stayed inconclusive and do not appear here. Cut-off read from the data, not from the text of the source: active = potency below about 15 µM; inconclusive = mostly about 16 µM to 33 µM; inactive = weaker than that. The list shows a part of the results.
These molecules were tested against Lysosomal acid glucosylceramidase (Homo sapiens) (UniProt P04062) (assay: Glucocerebrosidase). Conditions: purified enzyme, resorufin glucoside fluorescence (screen aimed at inhibitors), 20 min; series mostly up to 77 µM; activity change, negative = inhibition: at the top concentration.
How it was run: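 Normal human glucocerebrosidase (0.2 nM final) was assayed with resorufin β-D-glucopyranoside (30 uM final) in 50mM citric acid/KH2PO4, 10mM sodium taurocholate, 0.01% tween-20, pH 5.9. Compounds were titrated; fluorescence (Ex 548, Em 600) read after 20 min at RT.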
Potency is the fitted concentration of half-maximal effect.
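Throughout, for potency: the screen sought inhibitors.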

Chain of UniProt P04062 (P04062 whole entry, looked up): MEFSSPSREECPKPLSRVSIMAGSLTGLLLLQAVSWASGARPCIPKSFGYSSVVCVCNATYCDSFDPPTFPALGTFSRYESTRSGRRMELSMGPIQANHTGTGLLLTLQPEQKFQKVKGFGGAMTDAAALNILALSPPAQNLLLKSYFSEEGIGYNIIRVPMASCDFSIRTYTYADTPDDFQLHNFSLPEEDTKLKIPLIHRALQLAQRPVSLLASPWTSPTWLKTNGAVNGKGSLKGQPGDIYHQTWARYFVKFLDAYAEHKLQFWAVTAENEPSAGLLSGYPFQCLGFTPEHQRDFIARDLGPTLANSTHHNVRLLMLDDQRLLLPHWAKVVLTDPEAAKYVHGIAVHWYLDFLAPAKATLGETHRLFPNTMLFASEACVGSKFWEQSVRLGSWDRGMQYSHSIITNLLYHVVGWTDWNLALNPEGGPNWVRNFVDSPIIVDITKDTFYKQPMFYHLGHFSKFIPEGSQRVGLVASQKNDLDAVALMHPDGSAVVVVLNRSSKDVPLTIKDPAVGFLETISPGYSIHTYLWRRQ

Potency, inactive:
O=C(CN1C(=O)c2ccccc2C1=O)NCC1COc2ccccc2O1 (configuration not stated) > 76.9 µM
COC(=O)C1=C(N)Oc2cc(C)n(Cc3cccnc3)c(=O)c2C1c1cccc(OC)c1OC (configuration not stated) > 76.9 µM
Cc1ccc(C(=O)OCC(=O)Nc2ccc3c(c2)OCO3)o1 > 76.9 µM
CCC1CCCCN1CCCNC(=O)C1CCC(=O)N1Cc1ccc(C)cc1 (configuration not stated) > 76.9 µM
N#Cc1cn(-c2ccccc2)nc1-c1cc2ccccc2oc1=O > 76.9 µM
Cc1noc(C)c1S(=O)(=O)N1CCC(C(=O)N2CCN(c3ccc(Cl)cc3)CC2)CC1 > 76.9 µM
O=C(C1CCCCC1)N1CCN(S(=O)(=O)c2ccc(Cl)cc2)CC1 > 76.9 µM
NC(=O)c1ccsc1NC(=O)C1CCCN1S(=O)(=O)c1ccc(Cl)cc1 (configuration not stated) > 76.9 µM
COC(=O)c1c(NC(=O)CSc2nnnn2-c2ccccc2)sc2c1CCC(C)C2 (configuration not stated) > 76.9 µM
Cc1ccc(-c2cc(C(=O)N3CCN(C(=O)c4ccco4)CC3)no2)cc1 > 76.9 µM
CCC1CCCCN1C(=O)Cn1c(=O)n(CCC(=O)NCc2ccco2)c(=O)c2sccc21 (configuration not stated) > 76.9 µM
Cc1nc(N2CCN(c3ccccc3)CC2)nc2c1C(=O)CCC2 > 76.9 µM
O=C(NCc1cccnc1)C1CC(c2ccc(F)cc2)=NO1 (configuration not stated) > 76.9 µM
O=C(CSc1nnc(-c2ccccc2)n1Cc1ccccc1)N1CCOCC1 > 76.9 µM
CCOC(=O)N1CCN(C(=O)c2ccc3nc(N4CCCCC4)sc3c2)CC1 > 76.9 µM
CCOc1ccc(-c2nnn(CC(=O)NCc3cccs3)n2)cc1 > 76.9 µM
CCCC(=O)n1nc(-c2ccc(OC)cc2)nc1N > 76.9 µM
COC(=O)C1=C(C)Nc2c(c(=O)n(C)c(=O)n2C)C1c1cccs1 (configuration not stated) > 76.9 µM
O=C(NCc1cccnc1)NC1(C(F)(F)F)Oc2ccccc2O1
CC(=O)CSc1ncnc2nc[nH]c12 > 76.9 µM
CCOc1ccc(C(C)=O)cc1COc1ccc(-n2cnnn2)cc1 > 76.9 µM
COC(=O)c1ccc(CSc2nnc3c(Cl)cc(Cl)cn23)o1 > 76.9 µM
CCOCC(=O)Nc1cccc(C(=O)OCC)c1 > 76.9 µM
CC1(C)CC(=O)c2cc(C(=O)NCc3ccco3)c(=O)n(-c3ccc(Cl)cc3)c2C1 > 76.9 µM
Cc1cccc(Cn2c(Sc3nc(C)cs3)nc3c2c(=O)[nH]c(=O)n3C)c1 > 76.9 µM
COc1ccccc1N1CCN(CC(=O)Nc2ccc(C)c(F)c2)CC1 > 76.9 µM
Cn1c(CN2CCCC2)nc2cc(NS(=O)(=O)c3ccccc3)ccc21 > 76.9 µM
O=C(NCCO)c1c(O)c2cccc3c2n(c1=O)CC3 > 76.9 µM
CCCCCCNc1cc2n(c(=O)n1)CCc1cc(OC)c(OC)cc1-2 > 76.9 µM
O=C(CCn1c(=O)oc2ccccc21)N(Cc1ccccc1)c1ccccn1 > 76.9 µM
COc1cc(OC)c(-c2nn3c(-c4ccco4)nnc3s2)cc1OC > 76.9 µM
COc1ccccc1NC(=O)CCc1nc(-c2cccs2)no1 > 76.9 µM
Cc1nc2nc(-c3ccco3)[nH]n2c(=O)c1Cc1ccccc1 > 76.9 µM
COC(=O)COc1ccc(S(=O)(=O)N2CCOCC2)cc1C > 76.9 µM
O=C(NC1CCCC1)c1cccc(S(=O)(=O)N2CCCCC2)c1 > 76.9 µM
CCOC(=O)C1C(=O)NC(N2CCCCC2)=NC1c1ccco1 (configuration not stated) > 76.9 µM
C/C(N)=C(/C#N)C(=O)COC(=O)CC1CCCC1 > 76.9 µM
COCCN(C(=O)CCC(=O)Nc1cccnc1)C(C(=O)NC1CCCCC1)c1ccccc1 (configuration not stated) > 76.9 µM
CCCn1c(SCC(=O)c2cc(OC)ccc2OC)nnc1-c1ccco1 > 76.9 µM
COC(=O)c1cc(OC)c(OC)cc1NC(=O)CSc1nnnn1Cc1ccccc1
O=C(Nc1ccc2c(c1)OCO2)N1CCN(C(=O)C2CCCO2)CC1 (configuration not stated) > 76.9 µM
COc1ccccc1C(=O)Nn1cnc2ccccc2c1=O > 76.9 µM
c1ccc(Cn2c(SCc3nc4ccccc4s3)nnc2-c2ccco2)cc1 > 76.9 µM
CCS(=O)(=O)n1nc(NCc2cccc(OC)c2)nc1NCc1cccc(OC)c1 > 76.9 µM
CC(=O)N1C(=O)N(C(C)=O)C2C1N(C(C)=O)C(=O)N2C(C)=O (configuration not stated) > 76.9 µM
O=C(Nc1ccccc1F)c1ccc(S(=O)(=O)NCC2CCCO2)cc1 (configuration not stated) > 76.9 µM
COc1ccc(-c2nnn(Cc3nn[nH]n3)n2)cc1OC > 76.9 µM
CCOC(=O)CN1C(=O)NC2NC(=O)NC21 (configuration not stated) > 76.9 µM
Cc1ccsc1CNn1cnnc1SCc1ccccc1F > 76.9 µM
CN1CCCN(C(=O)c2cc(=O)[nH]c3ccccc23)c2nc3ccccc3nc21 > 76.9 µM
O=C(CCS(=O)(=O)c1cccc2nonc12)NCCc1ccccc1Cl > 76.9 µM
CCOC(=O)C1CCN(S(=O)(=O)Cc2ccccc2)C1=O (configuration not stated) > 76.9 µM
CCCn1c2c(c(O)c(C(=O)NC)c1=O)CCCC2 > 76.9 µM
CCOCCCNC(=O)C1CCCN1S(=O)(=O)c1ccc(Cl)cc1 (configuration not stated) > 76.9 µM
O=C(Nc1nc(-c2ccccc2)ns1)c1cccs1 > 76.9 µM
CC(Oc1ccc(-c2ccccc2)cc1)C(=O)N1CCOCC1 (configuration not stated) > 76.9 µM
CCCC(=O)Nc1ccc2nc(SCC(=O)Nc3nccs3)sc2c1 > 76.9 µM
COCC(=O)NCc1nc2ccccc2[nH]1 > 76.9 µM
CCCCCN(C(=O)NC(=O)Nn1cnnc1)S(C)(=O)=O > 76.9 µM
COCCNC(=O)COC(=O)c1nsc(Cl)c1Cl > 76.9 µM
COCCNC(=O)CNS(=O)(=O)c1ccc2nc(C)sc2c1 > 76.9 µM
COCCn1c(C)cc(C(=O)COc2nc3ccccc3nc2C)c1C > 76.9 µM
COCCCNC(=O)CSC1=Nc2ccccc2C2=NC(Cc3c[nH]c4ccccc34)C(=O)N12 (configuration not stated) > 76.9 µM
Cc1ccc(Cn2nnnc2CN2CCC(O)(c3ccc(F)cc3)CC2)cc1 > 76.9 µM
CC(C)C(c1nnnn1Cc1ccc(F)cc1)N1CCSCC1 (configuration not stated) > 76.9 µM
COc1ccc2cc(C(c3nnnn3CC3CCCO3)N3CCOCC3)c(=O)[nH]c2c1 (configuration not stated) > 76.9 µM
Cc1ccc(-c2cn3c(=S)[nH]nc3s2)cc1 > 76.9 µM
CSc1ccccc1NS(=O)(=O)c1ccccc1 > 76.9 µM
Cc1cc(C)nc(SCc2nnc(SCC(=O)Nc3ncc(C)s3)n2Cc2ccco2)n1 > 76.9 µM
CN(C)S(=O)(=O)N1CCN(S(=O)(=O)c2ccc(F)cc2)CC1 > 76.9 µM
Clc1ccc(Cn2ncc3c(NCc4cccnc4)ncnc32)cc1 > 76.9 µM
CCc1c(C)c2cc(Cl)c(O)c(CN(CC)CC)c2oc1=O > 76.9 µM
Cc1ccc(CN2CC(C(=O)Nc3ccc(S(=O)(=O)Nc4cc(C)nc(C)n4)cc3)CC2=O)cc1 (configuration not stated) > 76.9 µM
Cc1cc2c(c(=O)n1CCN(C)C)C(c1ccncc1)C(C#N)=C(N)O2 (configuration not stated) > 76.9 µM
COc1ccc(C2(NC(C)=O)CCN(C(=O)c3ccco3)CC2)cc1 > 76.9 µM
O=C(O)c1ccccc1-c1nc2ccccc2c(=O)[nH]1 > 76.9 µM
COc1cc(S(=O)(=O)NCc2ccccc2)ccc1F > 76.9 µM
Cn1c(-c2ccccc2)cccc1=O > 76.9 µM
OCc1ccccc1CNCc1ccccc1 > 76.9 µM
O=c1cc(CSc2ccc(Cl)cc2)nc(N2CCCCC2)[nH]1 > 76.9 µM
CSc1nsc(SCC(=O)Nc2c(C)n(C)n(-c3ccccc3)c2=O)n1 > 76.9 µM
CCSC1=C(C#N)C2(CCCCC2)C(C#N)=C(N)N1
O=C(CCN1C(=O)c2ccccc2C1=O)Nc1ccc(F)cc1F > 76.9 µM
CC(=O)Nc1c(C#N)c(C(C)(C)C)cn1C > 76.9 µM
O=C(CSc1nc(-c2ccco2)cc(C(F)(F)F)n1)Nc1ccc2c(c1)OCO2 > 76.9 µM
Cc1ccc(S(=O)(=O)NCCC(=O)NCc2ccccc2)cc1 > 76.9 µM
CC(C)CSc1nc2c(c(=O)[nH]c(=O)n2C)n1CC(O)COc1cccc2ccccc12 (configuration not stated) > 76.9 µM
Cc1c(NC(=O)Cn2cnc3c(=O)n(C)c(=O)n(C)c32)cccc1-c1nc2ccccc2o1 > 76.9 µM
CCN(CC)S(=O)(=O)c1cccc2nsnc12 > 76.9 µM
Cc1ccc(N2C(=O)C3C4C=CC(C4)C3C2=O)cc1C (configuration not stated) > 76.9 µM

Potency, active:
CCOC(=O)C1CCN(c2nc(-c3ccccc3)nc3c2oc2ccccc23)CC1 7.39 µM

Activity change, negative = inhibition, inactive:
Cn1c(CNc2cccc(Cl)c2)nnc1SCC(=O)OC1CCCCC1 -19.3%

Reference: PubChem BioAssay AID360 (National Center for Advancing Translational Sciences (NCATS), 2006)
